Experimental data published in a collection of fitness landscapes (doi:10.1016/j.celrep.2020.107928).
Over roughly 81,000 sequences, “one-hybrid fitness for binding NBS DNA” has its median near -0.1; the highest 2% begin near 0.36. This is one part of the list.

B1: Caulobacter ParB omega fusion; a variant is named by its letters at X, in order, B8GW30 (parent)
chain: MESVVVGEPGMSEGRRGLGRGLSALLGEVDAAPAQAPGEQLGGSREAPIEILQRNPDQPRRTFREEDLEDLSNSIREKGVLQPILVRPSPDTAGEYQIVAGERAWRAAQRAGLKTVPIMVRELDDLAVLEIGIIENVQRADLNVLEEALSYKVLMEKFERTQENIAQTIGKSXSHVANXMRLLXLPDEVQSYLVSGELTAXHARAIAAAADPVALAKQIIEGGLSVRETEALARKAPNLSAGKSKGGRPPRVKDTDTQALESDLSSVLGLDVSIDHRGSTGTLTITYATLEQLDDLCNRLTRGI

Variants of: B1
Experiment: one-hybrid fitness for binding NBS DNA (the Noc-binding site; scaled: cognate 1, non-cognate 0); higher = stronger binding
Conditions: with NBS DNA site
In short: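 On M9-minus-histidine containing 0.1 mM IPTG and 5 mM 3-AT, E. coli USO cells with a HIS3 reporter, site 19 bp from the promoter, grew 48 hours at 37°C to select Caulobacter ParB libraries randomised at four specificity codons. Plasmids from before and after were Illumina-sequenced, with three replicate libraries pooled and variants under 10 reads left out. Fitness is the log change in variant-to-wild-type read ratio, rescaled against cognate and non-cognate.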

Variant | one-hybrid fitness for binding NBS DNA
KHLE | ≤ 0.2
SVVT | ≤ 0.2
SAER | ≤ 0.2
QMLY | ≤ 0.2
PMSG | ≤ 0.2
PPRR | ≤ 0.2
FIHY | ≤ 0.2
VERT | ≤ 0.2
MIGV | ≤ 0.2
VLKM | ≤ 0.2
LVQV | ≤ 0.2
TWRG | ≤ 0.2
TGSS | ≤ 0.2
GPLP | ≤ 0.2
SMRN | ≤ 0.2
CYLS | ≤ 0.2
LRMV | ≤ 0.2
VLPE | ≤ 0.2
HNVC | ≤ 0.2
RIRG | ≤ 0.2
HVVV | ≤ 0.2
HDTT | ≤ 0.2
ERNR | ≤ 0.2
KHEA | ≤ 0.2

Variant | one-hybrid fitness for binding NBS DNA
APTD | ≤ 0.2
EDRA | ≤ 0.2
GSSP | ≤ 0.2
ETNG | ≤ 0.2
RVWT | 0.263
LWYN | ≤ 0.2
QCLC | ≤ 0.2
NDNS | ≤ 0.2
SLKM | ≤ 0.2
CDHG | ≤ 0.2
CHQS | ≤ 0.2
QEQW | ≤ 0.2
SSSI | ≤ 0.2
MWMK | ≤ 0.2
KMNV | ≤ 0.2
VVKT | ≤ 0.2
TTFI | ≤ 0.2
LTTD | ≤ 0.2
RNPQ | ≤ 0.2
EHIT | ≤ 0.2
ELNV | ≤ 0.2
VTTD | ≤ 0.2
VEFS | ≤ 0.2
QDPV | ≤ 0.2

Variant | one-hybrid fitness for binding NBS DNA
GKCR | ≤ 0.2
MKDR | ≤ 0.2
EPIK | ≤ 0.2
GWRR | ≤ 0.2
SEKN | ≤ 0.2
PKQN | ≤ 0.2
RVSI | ≤ 0.2
AENG | ≤ 0.2
VFST | ≤ 0.2
LAHM | ≤ 0.2
LFAG | ≤ 0.2
WTCM | ≤ 0.2
ESNF | ≤ 0.2
PINQ | ≤ 0.2
KKTV | ≤ 0.2
ATEK | ≤ 0.2
QRRM | 0.589
VEFC | ≤ 0.2
TQYR | ≤ 0.2
ARTH | ≤ 0.2
MIGT | ≤ 0.2
TYKE | ≤ 0.2
GPEA | ≤ 0.2
VAMT | ≤ 0.2

Variant | one-hybrid fitness for binding NBS DNA
QAQR | 0.506
RDAR | ≤ 0.2
RYSH | ≤ 0.2
QCRH | 0.693
IVFC | ≤ 0.2
VQNQ | ≤ 0.2
QHQG | ≤ 0.2
NPQS | ≤ 0.2
QCSH | 0.272
HAET | ≤ 0.2
EDRG | ≤ 0.2
MGEV | ≤ 0.2
ATYW | ≤ 0.2
DRFR | ≤ 0.2
MPLG | ≤ 0.2
AGVV | ≤ 0.2
LTIT | ≤ 0.2
RRHA | 0.66
DDAC | ≤ 0.2
CLAS | ≤ 0.2
CCTG | ≤ 0.2
TCSR | ≤ 0.2
IHQF | ≤ 0.2
KMMG | ≤ 0.2

Variant | one-hybrid fitness for binding NBS DNA
IHGS | ≤ 0.2
ENFT | ≤ 0.2
TFAG | ≤ 0.2
RKTV | ≤ 0.2
RRMC | 0.288
ETCG | ≤ 0.2
FTKY | ≤ 0.2
QNRG | ≤ 0.2
RLDK | ≤ 0.2
IGMN | ≤ 0.2
VHAV | ≤ 0.2
RETM | ≤ 0.2
LNTG | ≤ 0.2
CEYL | ≤ 0.2
PNDS | ≤ 0.2
RWMT | ≤ 0.2
NCRC | ≤ 0.2
PWPV | ≤ 0.2
YGCS | ≤ 0.2
QLVE | ≤ 0.2
MTAG | ≤ 0.2
TPDD | ≤ 0.2
HDKF | ≤ 0.2
TVLP | ≤ 0.2

Variant | one-hybrid fitness for binding NBS DNA
MYTK | ≤ 0.2
ILTY | ≤ 0.2
LHQC | ≤ 0.2
LAYR | ≤ 0.2
QRCK | 0.388
AATY | ≤ 0.2
PALA | ≤ 0.2
DRHV | ≤ 0.2
IAHP | ≤ 0.2
STCG | ≤ 0.2
PECE | ≤ 0.2
YCTR | ≤ 0.2
QPYT | ≤ 0.2
QIPG | ≤ 0.2
HCHP | ≤ 0.2
TPHI | ≤ 0.2
DFHR | ≤ 0.2
SMNS | ≤ 0.2
FFAS | ≤ 0.2
GCGR | ≤ 0.2
GAHL | ≤ 0.2
ILTD | ≤ 0.2
AFAV | ≤ 0.2
CIKR | ≤ 0.2

Variant | one-hybrid fitness for binding NBS DNA
LLET | ≤ 0.2
LFHV | ≤ 0.2
KPLV | ≤ 0.2
SLAC | ≤ 0.2
ECMR | ≤ 0.2
EPQD | ≤ 0.2
WAKS | ≤ 0.2
LDRW | ≤ 0.2
CSPY | ≤ 0.2
PVKW | ≤ 0.2
ALEI | ≤ 0.2
QFWS | ≤ 0.2
SRGW | ≤ 0.2
EERV | ≤ 0.2
NTRL | ≤ 0.2
YYRG | ≤ 0.2
TFDC | ≤ 0.2
LNMS | ≤ 0.2
PHRT | ≤ 0.2
MVRM | ≤ 0.2
TFPV | ≤ 0.2
TTAV | ≤ 0.2
MSEL | ≤ 0.2
REDS | ≤ 0.2

Variant | one-hybrid fitness for binding NBS DNA
DMKP | ≤ 0.2
AWVP | ≤ 0.2
NEQG | ≤ 0.2
RDYF | ≤ 0.2
TRQY | ≤ 0.2
PVTF | ≤ 0.2
QLMV | ≤ 0.2
RMYN | ≤ 0.2
QCCV | ≤ 0.2
LQTQ | ≤ 0.2
VDTV | ≤ 0.2
QSLI | ≤ 0.2
RKWK | ≤ 0.2
MNTG | ≤ 0.2
QNQI | ≤ 0.2
GSGI | ≤ 0.2
LNGW | ≤ 0.2
LTAA | ≤ 0.2
IPYA | ≤ 0.2
FSSI | ≤ 0.2
QTEK | ≤ 0.2
SNRC | ≤ 0.2
ALHI | ≤ 0.2
SMNC | ≤ 0.2

Variant | one-hybrid fitness for binding NBS DNA
TQGS | ≤ 0.2
QPIP | ≤ 0.2
RTHI | ≤ 0.2
IYPF | ≤ 0.2
ERCS | ≤ 0.2
NWRN | ≤ 0.2
INRC | ≤ 0.2
QRRW | 0.384
AERF | ≤ 0.2
VWQC | ≤ 0.2
MAHE | ≤ 0.2
LYCH | ≤ 0.2
NRDS | ≤ 0.2
GYGR | ≤ 0.2
TTPQ | ≤ 0.2
KNGG | ≤ 0.2
MTRR | 0.273
EVLF | ≤ 0.2
HPSV | ≤ 0.2
QNIR | ≤ 0.2
CKPI | ≤ 0.2
RKYD | ≤ 0.2
RKRI | ≤ 0.2
HTGG | ≤ 0.2

Variant | one-hybrid fitness for binding NBS DNA
KHSV | ≤ 0.2
RAPH | ≤ 0.2
SGLG | ≤ 0.2
LWPM | ≤ 0.2
LYCD | ≤ 0.2
KNSV | ≤ 0.2
KEFG | ≤ 0.2
SIKR | ≤ 0.2
QKPT | 0.306
TQIL | ≤ 0.2
FDPE | ≤ 0.2
RATN | ≤ 0.2
ANQC | ≤ 0.2
SITR | ≤ 0.2
KKFS | ≤ 0.2
RRAG | 0.357
ESIC | ≤ 0.2
HFLG | ≤ 0.2
GPMT | ≤ 0.2
QFRT | 0.309
SSGF | ≤ 0.2
VTRA | ≤ 0.2
ASRW | ≤ 0.2
IRKE | ≤ 0.2

Variant | one-hybrid fitness for binding NBS DNA
EYDS | ≤ 0.2
GWLW | ≤ 0.2
MIRG | ≤ 0.2
MSSK | ≤ 0.2
KGQM | ≤ 0.2
NGEC | ≤ 0.2
ELIG | ≤ 0.2
PPNR | ≤ 0.2
AHSC | ≤ 0.2
SSAS | ≤ 0.2
QGNV | ≤ 0.2
LTGI | ≤ 0.2
AVEY | ≤ 0.2
VVNV | ≤ 0.2
SWRE | ≤ 0.2
AFCT | ≤ 0.2
LERC | ≤ 0.2
QELY | ≤ 0.2
NGLK | ≤ 0.2
VYMM | ≤ 0.2
SPWL | ≤ 0.2
LQTV | ≤ 0.2
LSMI | ≤ 0.2
RQFW | ≤ 0.2

Variant | one-hybrid fitness for binding NBS DNA
YRAD | ≤ 0.2
YPAL | ≤ 0.2
PVKF | ≤ 0.2
DGLG | ≤ 0.2
VIIF | ≤ 0.2
NRSY | ≤ 0.2
IPHT | ≤ 0.2
IDQC | ≤ 0.2
YQEC | ≤ 0.2
KVHL | ≤ 0.2
LLGG | ≤ 0.2
MNAL | ≤ 0.2
ERHY | ≤ 0.2
CFSG | ≤ 0.2
NRHD | ≤ 0.2
TMTA | ≤ 0.2
IFSF | ≤ 0.2
MQSN | ≤ 0.2
WLFI | ≤ 0.2
YDYT | ≤ 0.2
HMAS | ≤ 0.2
APAV | ≤ 0.2
MLAW | ≤ 0.2
EPLE | ≤ 0.2

Variant | one-hybrid fitness for binding NBS DNA
CSSS | ≤ 0.2
LDNI | ≤ 0.2
GDRY | ≤ 0.2
NMCC | ≤ 0.2
HPIR | ≤ 0.2
FHLG | ≤ 0.2
SKAL | ≤ 0.2
PEPV | ≤ 0.2
PHIH | ≤ 0.2
TPSG | ≤ 0.2
GHVR | ≤ 0.2
DQFG | ≤ 0.2
ACSG | ≤ 0.2
PQQI | ≤ 0.2
YDKE | ≤ 0.2
VDPE | ≤ 0.2
CVVG | ≤ 0.2
QGDV | ≤ 0.2
